# The full ranking holds about 2,900 compounds; the median of “NF-kB SEAP reporter activity, fold change vs agonist alone” is about 0.99, and the highest 2% start at about 2.6. Some of the results follow.
# Columns and labels:
# RAW-Dual [1] = assay: NF-kB SEAP reporter activity, fold change vs agonist alone; cytotoxicity flag (confluency mask): not cytotoxic; higher = enhanced NF-kB activity
# Method in brief: (§1)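 RAW-Dual macrophages were seeded in DMEM at 50,000 cells/well in 384-well plates, given 50 nL of library stock by pin tool, and given a PRR agonist 1 h later. Plates were held at 37 °C, 5% CO2 for 20 hours, after which supernatant was read for IRF by QuantiLuc luminescence and for NF-κB by QuantiBlue absorbance at 620 nm. Reporter activity is expressed as fold change over wells that received agonist alone. A well was called cytotoxic when IncuCyte confluency fell below 70% of agonist controls in both mask sets.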
# RAW-Dual [2] = assay: NF-kB SEAP reporter activity, fold change vs agonist alone; higher = enhanced NF-kB activity; details: library stock concentration (final ~1000-fold dilution): 10 mM
# Method in brief: as §1
# RAW-Dual [3] = assay: NF-kB SEAP reporter activity, fold change vs agonist alone; cytotoxicity flag (confluency mask): cytotoxic (confluency <70% of control); higher = enhanced NF-kB activity
# Method in brief: as §1
# [4] = agonist: ODN 1826 (TLR9) 0.5 ug/mL
# [5] = agonist: Pam2CSK4 (TLR2/6) 0.1 ug/mL
# [6] = agonist: Pam3CSK4 (TLR2/1) 0.1 ug/mL
# [7] = cytotoxicity flag (confluency mask): not cytotoxic, agonist: Imiquimod (TLR7) […]
# [8] = cytotoxicity flag (confluency mask): not cytotoxic, agonist: MPLA (TLR4) […]
# [9] = cytotoxicity flag (confluency mask): cytotoxic (confluency <70% of control), agonist: Imiquimod (TLR7) […]
# [10] = cytotoxicity flag (confluency mask): cytotoxic (confluency <70% of control), agonist: MPLA (TLR4) […]
smiles,measurement,setting,value
CN(C)C(=O)COC(=O)Cc1ccc(OC(=O)c2ccc(NC(=N)N)cc2)cc1.CS(=O)(=O)O (library stock concentration (final ~1000-fold dilution): 10 mM),NF-kB SEAP reporter activity,RAW-Dual [1]; agonist: LPS (TLR4) 0.1 ug/mL,0.941
same,NF-kB SEAP reporter activity,RAW-Dual [1]; [4],1.07
same,NF-kB SEAP reporter activity,RAW-Dual [1]; [5],1.02
same,NF-kB SEAP reporter activity,RAW-Dual [1]; [6],0.912
Cc1nn(C)c2c1C(c1ccc(C(F)(F)F)cc1)C(C#N)=C(N)O2 (stereo unspecified),NF-kB SEAP reporter activity,RAW-Dual [2]; [7],0.85
same,NF-kB SEAP reporter activity,RAW-Dual [2]; [8],1.16
Cc1nn(C)c2c1C(c1ccc(C(F)(F)F)cc1)C(C#N)=C(N)O2 (stereo unspecified) (library stock concentration (final ~1000-fold dilution): 10 mM),NF-kB SEAP reporter activity,RAW-Dual [1]; agonist: LPS (TLR4) 0.1 ug/mL,0.946
same,NF-kB SEAP reporter activity,RAW-Dual [1]; [4],0.699
same,NF-kB SEAP reporter activity,RAW-Dual [1]; [5],1.02
same,NF-kB SEAP reporter activity,RAW-Dual [1]; [6],0.568
CN1CCCN(C(=O)c2cccc(-c3ccc(/C=C4/C(=O)Nc5ccc(Cl)cc54)o3)c2)CC1.Cl (library stock concentration (final ~1000-fold dilution): 10 mM),NF-kB SEAP reporter activity,RAW-Dual [3]; agonist: LPS (TLR4) 0.1 ug/mL,0.231
same,NF-kB SEAP reporter activity,RAW-Dual [3]; [4],0.179
same,NF-kB SEAP reporter activity,RAW-Dual [3]; [5],0.0881
same,NF-kB SEAP reporter activity,RAW-Dual [3]; [6],0.15
CN1CCCN(C(=O)c2cccc(-c3ccc(/C=C4/C(=O)Nc5ccc(Cl)cc54)o3)c2)CC1.Cl,NF-kB SEAP reporter activity,RAW-Dual [2]; [9],0.317
same,NF-kB SEAP reporter activity,RAW-Dual [2]; [10],0.349
CN(C)CCC=C1c2ccccc2C=Cc2ccccc21.Cl (library stock concentration (final ~1000-fold dilution): 10 mM),NF-kB SEAP reporter activity,RAW-Dual [3]; agonist: LPS (TLR4) 0.1 ug/mL,1.08
same,NF-kB SEAP reporter activity,RAW-Dual [3]; [4],0.95
same,NF-kB SEAP reporter activity,RAW-Dual [3]; [5],0.822
same,NF-kB SEAP reporter activity,RAW-Dual [3]; [6],0.732
CN(C)CCC=C1c2ccccc2C=Cc2ccccc21.Cl,NF-kB SEAP reporter activity,RAW-Dual [2]; [9],1.86
same,NF-kB SEAP reporter activity,RAW-Dual [2]; [10],1.18
COc1ccc2cc1Oc1ccc(cc1)CC1c3c(cc4c(c3Oc3cc5c(cc3OC)CCN(C)C5C2)OCO4)CCN1C (stereo unspecified) (library stock concentration (final ~1000-fold dilution): 10 mM),NF-kB SEAP reporter activity,RAW-Dual [3]; agonist: LPS (TLR4) 0.1 ug/mL,1.44
same,NF-kB SEAP reporter activity,RAW-Dual [3]; [4],0.251
same,NF-kB SEAP reporter activity,RAW-Dual [3]; [5],1.42
same,NF-kB SEAP reporter activity,RAW-Dual [3]; [6],1.01
COc1ccc2cc1Oc1ccc(cc1)CC1c3c(cc4c(c3Oc3cc5c(cc3OC)CCN(C)C5C2)OCO4)CCN1C (stereo unspecified),NF-kB SEAP reporter activity,RAW-Dual [2]; [9],1.58
same,NF-kB SEAP reporter activity,RAW-Dual [2]; [10],2.32
CC(=O)c1ccc2c(c1)c1cc(C(C)=O)ccc1n2CCNC(C)C.Cl (library stock concentration (final ~1000-fold dilution): 10 mM),NF-kB SEAP reporter activity,RAW-Dual [3]; agonist: LPS (TLR4) 0.1 ug/mL,0.329
same,NF-kB SEAP reporter activity,RAW-Dual [3]; [4],0.209
same,NF-kB SEAP reporter activity,RAW-Dual [3]; [5],0.0686
same,NF-kB SEAP reporter activity,RAW-Dual [3]; [6],0.155
CC(=O)c1ccc2c(c1)c1cc(C(C)=O)ccc1n2CCNC(C)C.Cl,NF-kB SEAP reporter activity,RAW-Dual [2]; [9],0.156
same,NF-kB SEAP reporter activity,RAW-Dual [2]; [10],0.26
CCCCCCCCCCCC1=C(O)C(=O)C=C(O)C1=O,NF-kB SEAP reporter activity,RAW-Dual [2]; [9],1.1
same,NF-kB SEAP reporter activity,RAW-Dual [2]; [10],0.79
CCCCCCCCCCCC1=C(O)C(=O)C=C(O)C1=O (library stock concentration (final ~1000-fold dilution): 10 mM),NF-kB SEAP reporter activity,RAW-Dual [3]; agonist: LPS (TLR4) 0.1 ug/mL,0.65
same,NF-kB SEAP reporter activity,RAW-Dual [3]; [4],0.374
same,NF-kB SEAP reporter activity,RAW-Dual [3]; [5],0.232
same,NF-kB SEAP reporter activity,RAW-Dual [3]; [6],0.25
CC(NC(=O)c1ncnc(N)c1Cl)c1ncc(C(=O)Nc2cc(C(F)(F)F)c(Cl)cn2)s1 (stereo unspecified),NF-kB SEAP reporter activity,RAW-Dual [2]; [7],0.623
same,NF-kB SEAP reporter activity,RAW-Dual [2]; [8],0.876
CC(NC(=O)c1ncnc(N)c1Cl)c1ncc(C(=O)Nc2cc(C(F)(F)F)c(Cl)cn2)s1 (stereo unspecified) (library stock concentration (final ~1000-fold dilution): 10 mM),NF-kB SEAP reporter activity,RAW-Dual [1]; agonist: LPS (TLR4) 0.1 ug/mL,0.632
same,NF-kB SEAP reporter activity,RAW-Dual [1]; [4],0.495
same,NF-kB SEAP reporter activity,RAW-Dual [1]; [5],0.383
same,NF-kB SEAP reporter activity,RAW-Dual [1]; [6],0.417
CCC1OC(=O)C(C)C(OC2CC(C)(OC)C(O)C(C)O2)C(C)C(OC2OC(C)CC(N(C)C)C2O)C(C)(O)CC(C)C(=O)C(C)C(O)C1(C)O.N#CS (stereo unspecified) (library stock concentration (final ~1000-fold dilution): 10 mM),NF-kB SEAP reporter activity,RAW-Dual [1]; agonist: LPS (TLR4) 0.1 ug/mL,1.06
same,NF-kB SEAP reporter activity,RAW-Dual [1]; [4],0.88
same,NF-kB SEAP reporter activity,RAW-Dual [1]; [5],1.07
same,NF-kB SEAP reporter activity,RAW-Dual [1]; [6],1.08
CCC1OC(=O)C(C)C(OC2CC(C)(OC)C(O)C(C)O2)C(C)C(OC2OC(C)CC(N(C)C)C2O)C(C)(O)CC(C)C(=O)C(C)C(O)C1(C)O.N#CS (stereo unspecified),NF-kB SEAP reporter activity,RAW-Dual [2]; [8],1.07

# — the supplement of paper PMC10037445
